# According to PubChem BioAssay AID1347073 (National Center for Advancing Translational Sciences (NCATS), 2019):
# Hit rate of the full screen: of about 45,000 compounds, about 200 (0.44%) were called active. Not shown: some 7% with an inconclusive outcome. Calls follow the shape of the dose curve; as a rule, active = well fitted activation curve with a large enough effect; inconclusive = small, poorly fitted or top-dose-only effect; inactive = no such curve, though single readings can be large or run the other way. This is one part of the list.
# Assay: qHTS of TDP-43 Inhibitors: NCGC Sytravon Library Screen; also: nearly all actives have a fitted effect of over 55% in size; as to growth rescue (activation): 0% is about no effect
# Details: yeast TDP-43 toxicity rescue, BacTiter-Glo growth, 24 h; series mostly up to 46.1 µM; growth rescue (activation): at the top concentration
# Procedure, shortened: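 TDP-43-expressing yeast, pregrown in raffinose, seeded at OD600 0.02 in galactose medium with compound for 24 hr at 30 deg C. Growth read by BacTiter-Glo luminescence, so rescue of toxicity appears as activation.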
# Potency is read from the fitted curve at half-maximal effect.
Compound,growth rescue (activation),Potency
O=C(COC(=O)COc1ccccc1)NC1CCS(=O)(=O)C1 (stereo not drawn),inactive: -14.9%,–
COc1ccccc1N1CCN(C(=O)CCCn2nc(C)c([N+](=O)[O-])c2C)CC1,inactive: 4.93%,–
COc1ccc(C2CC(c3cccs3)=NN2S(C)(=O)=O)cc1 (stereo not drawn),inactive: 9.54%,–
Cc1ccc(C)c(OCCC(=O)OCC(=O)Nc2cc(S(=O)(=O)N3CCCCC3)ccc2C)c1,inactive: -3.98%,–
COc1cccc(CN2CCNC(=O)C2CC(=O)NCCCn2ccnc2)c1 (stereo not drawn),inactive: 11.1%,–
COc1cccc(CNC(=O)N2CCN(c3ccccc3C)CC2)c1,inactive: 28.5%,–
O=C(CCS(=O)(=O)c1ccc(Cl)cc1)Nc1ccccc1Br,inactive: 2.35%,–
CC(C)CNC(=S)N1CCN(Cc2ccc3c(c2)OCO3)CC1,inactive: 5.55%,–
Cc1cccc(NC(=O)[C@H](Cc2ccccc2)NC(=O)OCc2ccccc2)c1,inactive: 2.64%,–
COC(=O)/C(=C/c1cccc([N+](=O)[O-])c1)NC(=O)c1ccc(OC)cc1,inactive: 16.7%,–
Cc1ccc(CNC(=O)CCNC(=O)c2ccc([N+](=O)[O-])cc2)cc1,inactive: 27.4%,–
CN(CCC#N)C(=O)COC(=O)C1c2ccccc2Oc2ccccc21,inactive: 4.83%,–
CCOc1ccc2[nH]c3c(=O)n(CCC4=CCCCC4)cnc3c2c1,inactive: 17.4%,–
Fc1ccc(Oc2cnns2)cc1,inactive: 2.07%,–
CC(C)NC(=O)C1(C)CCN1C(=O)c1ccc(F)c(Cl)c1 (stereo not drawn),inactive: 5.78%,–
O=C(Nn1c(-c2ccncc2)nc2ccccc2c1=O)c1ccccc1Br,inactive: -0.755%,–
COc1cc2cc(CN(Cc3cccs3)C(=S)Nc3ccccc3)c(=O)[nH]c2cc1OC,inactive: 23.2%,–
CCNC(=S)N/N=C(\C)c1ccc(N2CCOCC2)cc1,inactive: 6.75%,–
CSCCC(NC(=O)c1cccc(C)c1)C(=O)O (stereo not drawn),inactive: 6.93%,–
O=c1nccc(N/N=C/c2cccc(O)c2)[nH]1,inactive: 18.5%,–
Cc1nn(CCO)c(N)c1C1(O)C(=O)Nc2c(Cl)cc(Cl)cc21 (stereo not drawn),inactive: 10.5%,–
Cc1nn(-c2ccccc2)c(C)c1C=O,inactive: 0.35%,–

Compound,growth rescue (activation),Potency
COc1ccc(OC)c(C(=O)Cn2cnc3ccccc3c2=O)c1,inactive: 20.1%,–
OC(COCc1ccccc1)CN1CCc2ccccc2C1 (stereo not drawn),inactive: -5.68%,–
Cc1ccc2occ(C3NC(C(=O)O)CS3)c(=O)c2c1 (stereo not drawn),inactive: 13.9%,–
O=C(COC(=O)COc1ccccc1)Nc1ccc(S(=O)(=O)N2CCOCC2)cc1,inactive: -3.03%,–
Cn1ncc2c(NNC(=O)Cc3ccccc3)ncnc21,inactive: -2.21%,–
CC(=O)Nc1cccc(-c2ccnc3c2CC(C(=O)NCc2cccs2)O3)c1 (stereo not drawn),inactive: 0.856%,–
Cc1ccc(NC(=O)CCn2c(=S)oc3ccccc32)cc1F,inactive: 8.06%,–
Cc1nn(-c2ccccc2)c(C)c1/C=N/NC(=O)CSc1nnc(SCc2cccc3ccccc23)s1,inactive: 8.22%,–
COCCn1nnnc1CN1CCN(C(=O)c2ccco2)CC1,inactive: 7.66%,–
O=C1CN(S(=O)(=O)c2ccc(Cl)cc2)c2ccccc2N1,inactive: -1.09%,–
CCc1nc2ccc(C(=O)N3CCN(C(C)=O)CC3)cn2c1N(CC)C(C)=O,inactive: 8.14%,–
CCc1nc2ccc(C(=O)Nc3ccc(NC(C)=O)cc3)cn2c1N(C)C(=O)Cc1ccccc1,inactive: -10.5%,–
N#CC1=C(S)N(c2ccc(F)cc2)C2(CCCCC2)NC1=O,inactive: -1.21%,–
NC1=NS(=O)(=O)NC1c1ccc(F)cc1 (stereo not drawn),inactive: -12%,–
CCOc1ccc(CNC(=O)c2ccc3c(c2)N(Cc2ccccc2)CCS3)cc1,inactive: -8.99%,–
COc1ccc(S(=O)(=O)Nc2ccccc2C(=O)NC(C)C)cc1OC,inactive: 6.69%,–
Cc1nc(CCNC(=O)CC2C(=O)NCCN2Cc2ccccc2F)sc1C (stereo not drawn),inactive: 32.4%,–
NS(=O)(=O)c1ccc(NC(=O)CSc2n[nH]c(=O)n2Cc2ccccc2)cc1,inactive: 2.1%,–
COc1ccc(S(=O)(=O)NCc2ccc(F)cc2)cc1OC,inactive: 7.68%,–
O=S(=O)(Nc1ccc(-n2cnnn2)cc1)c1ccc(Cl)s1,inactive: 19.1%,–
CCOC(=O)c1cnc(SCC(=O)NNC(=O)c2ccco2)nc1N,inactive: 21.3%,–
O=C(Cn1ncc2c(Cl)cccc21)NCc1cccc(F)c1,inactive: 4.64%,–

Compound,growth rescue (activation),Potency
O=C(COC(=O)c1ccc2ccccc2n1)Nc1ccccc1Br,inactive: 3.77%,–
CC1(C(=O)NS(=O)(=O)C2CC2)CCCN(C(=O)c2cc3ccccc3s2)C1 (stereo not drawn),inactive: -1.58%,–
COc1ccc(N(CC(=O)NCCc2ccc(Cl)cc2)S(=O)(=O)c2c(C)[nH]c(=O)[nH]c2=O)cc1,inactive: 8.06%,–
CC1(C(=O)NS(=O)(=O)C2CC2)CCN(C(=O)COCc2ccccc2)C1 (stereo not drawn),inactive: 6.06%,–
O=C(CSc1cn[nH]n1)Nc1cccc(C(F)(F)F)c1,inactive: -6.29%,–
Cc1cccc(C)c1NC(=O)C1(N2C(=O)CC2c2ccccc2)CCCCC1 (stereo not drawn),inactive: -8.89%,–
Cc1cccn2cc(-c3ccc4c(c3)NC(=O)CO4)nc12,inactive: -17.4%,–
CC1CC(C)CN(C(=O)COC(=O)CN2C(=O)c3ccccc3C2=O)C1 (stereo not drawn),inactive: 1.67%,–
COCCN(C(=O)CNC(=O)c1ccco1)C(C(=O)NC1CCCC1)c1cccc(OC)c1 (stereo not drawn),inactive: 11.9%,–
COC(=O)c1ccc(Nc2nc3ccc(C)cc3n3cnnc23)cc1,inactive: 3.17%,–
CC1CCCC(C)N1NC(=O)c1cccc(S(=O)(=O)N2CCc3ccccc32)c1 (stereo not drawn),inactive: 6.64%,–
O=C(N/N=C/c1ccc(F)cc1)c1cc[n+]([O-])cc1,inactive: -4.02%,–
O=C(CSc1nnc(-c2ccco2)c(-c2ccco2)n1)c1ccccc1,inactive: -2.09%,–
CCOc1ccccc1N(C)C(=O)c1nn(-c2ccc(OC)cc2OC)c(=O)c2ccccc12,inactive: -3.43%,–
O=C(CSc1nc2nc(-c3cccs3)cc(C(F)(F)F)c2c(=O)[nH]1)Nc1c(F)c(F)c(F)c(F)c1F,inactive: 5.26%,–
O=C(COC(=O)CC1CC2CCC1C2)NCc1ccc(F)cc1 (stereo not drawn),inactive: 6.92%,–
CC1Cc2ccccc2N1S(=O)(=O)c1cccc(C(=O)NC2CC2)c1 (stereo not drawn),inactive: -9.45%,–
CNCCCOc1cc(C)cc(C)c1C,inactive: -2.45%,–
COc1cc(C)ccc1S(=O)(=O)NC(=O)C1(C)CCN1C(=O)c1ccc(C(F)(F)F)nc1C (stereo not drawn),inactive: 7.52%,–
CCOC(=O)c1c(NC(C)=O)c2c3c(sc2n1Cc1cc(C)ccc1C)CCCC3,inactive: 4%,–
COc1ccc(N=C2NC(=O)C(CC(=O)NCCc3ccc(OC)c(OC)c3)S2)cc1 (stereo not drawn),inactive: 12.5%,–
COc1ccc(CNC(=O)COC(=O)Cc2ccsc2)cc1,inactive: 17.2%,–

Compound,growth rescue (activation),Potency
CCc1nc(SCC(=O)Nc2ccc(N(C)C)cc2)n[nH]1,inactive: 32.2%,–
O=C(COc1ccc(S(=O)(=O)N2CCOCC2)cc1Cl)N1CCCC1,inactive: 13.8%,–
CCc1ccccc1NC(=O)Nc1cccn(Cc2ccc(F)cc2)c1=O,inactive: 1.51%,–
c1ccc(-c2cn3nc(-c4ccccc4)sc3n2)cc1,inactive: 34.2%,–
CCn1c(SCC(=O)N2CCN(C(=O)c3ccco3)CC2)nnc1C(C)C,inactive: 3.58%,–
COc1cc(OC)cc(C(=O)N[C@H](C(=O)OCC(=O)N2CCc3ccccc32)C(C)C)c1,inactive: 2.53%,–
COc1ccc(CCN2C(=O)CS/C2=N\NC(=O)c2ccc(C(C)(C)C)cc2)cc1OC,inactive: -1.1%,–
CCCCCSc1nnc2c(n1)OC(c1cccn1C)N(C(C)=O)c1ccccc1-2 (stereo not drawn),inactive: 17.4%,–
O=C(Nc1cc(S(=O)(=O)N2CCOCC2)ccc1N1CCOCC1)c1ccccc1Cl,inactive: 4.62%,–
CC(C)c1cc(=O)n2[nH]c(SCc3ccccc3)nc2n1,inactive: 3.74%,–
CN(Cc1ccc2ccccc2c1)C(=O)c1ccc(C(F)(F)F)cc1,inactive: 5.44%,–
Cc1cccn2cc(CNC(=O)CC3CCCC3)nc12,inactive: -26.4%,–
O=C(c1cc2cc3ccc(Cl)cc3nc2o1)N1CCN(Cc2ccc3c(c2)OCO3)CC1,inactive: -14%,–
O=C(CSc1nnc(-c2ccccc2)n1-c1ccc(Cl)cc1)NC1CCS(=O)(=O)C1 (stereo not drawn),inactive: -5.59%,–
O=C(Nc1c(Cl)cccc1Cl)C1CCN(C(=O)c2cccs2)CC1,inactive: -2.31%,–
Cc1sc(NC(=O)CCCC(=O)O)c(C(N)=O)c1-c1ccccc1,inactive: 11.3%,–
COc1cc(OC)c(NC(=O)c2cncn2-c2ccc(F)cc2)cc1Cl,inactive: 2.67%,–
C=CCOc1cccc(/C=C2\C(=O)N(Cc3ccc(C)cc3)C(C)=C2C(=O)OC)c1,inactive: -2.7%,–
COc1ccc(CCNC(=O)c2ccc(CNS(=O)(=O)c3cccc(Cl)c3)cc2)cc1OC,inactive: 11.5%,–
CCCn1nc(C(=O)OCC(=O)Nc2ccc(C)cc2)c2ccccc2c1=O,inactive: -2.97%,–
CC(C)[C@H](NC(=O)c1ccccc1)C(=O)OCC(=O)Nc1ccc(S(=O)(=O)N2CCOCC2)cc1,inactive: 5.54%,–
C1=CCC(CN2CCNCC2)CC1 (stereo not drawn),inactive: -10.3%,–

Compound,growth rescue (activation),Potency
Oc1cccc(/C=N/Nc2ncnc3c2ncn3Cc2ccccc2)c1,inactive: 7.68%,–
Cn1cccc1C(=O)OCC(=O)Nc1ccc2c(c1)OCCO2,inactive: 10.3%,–
S=C(NCc1ccc(Cl)cc1)Nc1ccccc1,–,active: 12.6 µM
COc1ccc(Cl)cc1NC(=O)CN(C)CC(=O)Nc1ccc(S(N)(=O)=O)cc1,inactive: -1.21%,–
CC1CCN(c2nc3c(=O)[nH]c(N)nc3n2[C@@H]2O[C@H](CO)[C@@H](O)[C@H]2O)CC1,inactive: -14.6%,–
Cc1ccc(C(=O)NCCNC(=O)c2ccc(F)cc2)cn1,inactive: 2.76%,–
CCOC(=O)c1cc2n(n1)C(C(F)(F)F)CC(C)N2 (stereo not drawn),inactive: 0.536%,–
CCOC(=O)CSc1ccc(C(=O)Nc2ccc(OC)cc2)cn1,inactive: 10.4%,–
COc1cc(/C=N/NC(=O)c2ccncc2)ccc1OCC(=O)Nc1ccccc1,inactive: -17.2%,–
CCOC(=O)C1CCN(C(=O)Cc2ccc(OC)c(OC)c2)CC1,inactive: 6.28%,–
CC(C)Sc1nc2c(cnn2-c2ccc(Cl)cc2)c(=O)[nH]1,inactive: -3.44%,–
COc1ccc(-c2cnc(N)nc2-c2ccc(OCc3ccccc3)cc2O)cc1,inactive: 33.2%,–
CC(C)NC(=O)CSc1c2c(nc3ccccc13)CCCC2,inactive: -7.94%,–
CCS(=O)(=O)N1Cc2ccccc2CC1C(=O)Nc1ncc(C)s1 (stereo not drawn),inactive: 2.33%,–
Cc1ccccc1-c1cnc(C(O)c2c(C)cccc2C)[nH]1 (stereo not drawn),inactive: -12.8%,–
Cc1ccc(/C=N/Nc2nnc(Cc3ccccc3)c(=O)[nH]2)o1,inactive: 6.95%,–
O=C(Nc1ccc2oc(-c3ccccc3F)nc2c1)c1ccco1,inactive: 23.2%,–
CCN(CC(=O)Nc1ccccc1C(F)(F)F)C(=O)CCc1ccccc1,inactive: 18.3%,–
O=C(Nc1cccc(Cl)c1)c1ccc2sc([C@H]3C[C@H](O)[C@@H](CO)O3)nc2c1,inactive: -4.79%,–
COCCn1c(C(F)(F)F)ccc(NC(=O)c2ccccc2)c1=O,inactive: 7.89%,–
